The record followed here is the supplement of paper PMC11417369.

The other results are listed elsewhere or left out.

In the test the test system is PfAP2-HC AP2 domain (GST-tagged). The test is described as follows: gcPBM binding intensity (ln(normalized median fluorescence intensity)); higher = stronger DNA binding. In outline: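 The highest Masliner-normalised natural-log median intensity across replicate spots of either probe orientation is reported as binding intensity. GST-tagged P. falciparum DNA-binding domains expressed in E. coli were applied for 1 h to an Agilent 4 × 180k array of primer-extended double-stranded 36-bp intergenic genomic probes plus negative controls, and bound protein was detected with Alexa488 anti-GST antibody and scanned at 488 nm.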
“TATTATATTCTGCTTACACACATATATATATATATA [CACACA_site3060]”: the “gcPBM binding intensity (ln)” value turned out to be 9.87.
On to “TTAAAAAAAGAAAAAAAAAAAAAAAAAAAAAAACAT [CACACA_negctrl_site475]”, for which the “gcPBM binding intensity (ln)” value came to 9.46.
Regarding “TATAAAAATATTTCTACACACATTAATATTTATATA [CACACA_site6661]”, the “gcPBM binding intensity (ln)” value stood at 9.7.
Take “GTTCTAAATATTATTGCATGTTGCACGTTTCTCTGT [TGCATGCA_site159]”: the “gcPBM binding intensity (ln)” value amounted to 9.84.
For “GTGATAATTGCTTGGTGTACCCACATATATATATAT [XGTACX_site1636]”, the “gcPBM binding intensity (ln)” value amounted to 9.87.
For the sequence “CATGTATTTTATATTACACACTAATATTATAGATAT [CACACA_site6819]”, the “gcPBM binding intensity (ln)” value worked out at 9.7.
As to “TTTTTTTTTTTGTTTAAACACACGAGCTTTCTTCTT [CACACA_site4085]”, the “gcPBM binding intensity (ln)” value amounted to 9.93.
“AAACATATAAACATATGTACATATAAACATATATAC [XGTACX_site5026]”: the “gcPBM binding intensity (ln)” value stood at 9.76.
On to “TAAAACATAAGAGACACACACACATATATATATATA [CACACA_site3643]”, for which the “gcPBM binding intensity (ln)” value is 10.9.
In the case of “ATATTCTTTTTATGTGGTACTAATTTTTTTTTTTTA [XGTACX_site3791]” it was 9.73; in that of “TTTTTAAAACATCACTGTACCCGTTATGGTGAACAT [XGTACX_site3483]”, 9.54; in that of “TTTTTAAATAATTGAAGTACACATTTCTCTAAGTTG [XGTACX_site2846]”, 9.41.
As for “AGTAAAAGAAAGCACACACACATGTATATAGGTATG [CACACA_site7759]”, the “gcPBM binding intensity (ln)” value is 10.9.
In the case of “TTTTTAATTATCTTTTCCCATGGTTTCTCCGTTTTT [XGTACX_negctrl_site39]”, the “gcPBM binding intensity (ln)” value was determined as 9.67.
Consider “CAAAATAAAAATAACACACACATTTATATATATACA [CACACA_site1190]”, for which the “gcPBM binding intensity (ln)” value was 10.7.
“AGCATATTATCATATTGTACATATTATAATATATAT [XGTACX_site3907]”: the “gcPBM binding intensity (ln)” value stood at 9.69.
Take “ATATGTTTTGTTTACGTGCACTGCTTTGTTTATATA [GTGCAC_site9622]”: the “gcPBM binding intensity (ln)” value was found to be 10.5.
On to “ATTTCTCAATCTTAATGTACAAAAAAAAGGAAAAAG [XGTACX_site1210]”, for which the “gcPBM binding intensity (ln)” value amounted to 9.56.
Consider “TAAAAATTTTAATAAACACACAATGAGATATTGAAT [CACACA_site5704]”, for which the “gcPBM binding intensity (ln)” value worked out at 9.67.
As to “AGCAAATCAGATAGTAGTACATTTAAATTAGACTTT [XGTACX_site4172]”, the “gcPBM binding intensity (ln)” value stood at 9.58.
As to “TATATATATATATGTGCATGTAATGATTCAGCATCT [TGCATGCA_site803]”, the “gcPBM binding intensity (ln)” value amounted to 9.77.
“AACACAGATAAATTAACACACACACCCATATATATA [CACACA_site9310]”: the “gcPBM binding intensity (ln)” value was determined as 11.2.
As for “CACATATAGTTATATGCACACATCTTACACATCTAT [CACACA_site5937]”, the “gcPBM binding intensity (ln)” value stood at 10.3.
As for “ATGAAATATCGGAACGCACACATAAATATATTTATA [CACACA_site2670]”, the “gcPBM binding intensity (ln)” value came out at 10.1.
